Measured values as given in US20090054323A1 (published 2009).

Tests used:
[1] = target: T1, human Ang-2 (human, UniProt O15123 19-496, limits assumed); assay: KinExA, solution equilibrium, huAng-2-coated beads
T1 construct: Sources differ by assay: R&D Systems 623-AN (mixture of 2 truncated versions) for initial screening; also called hAng-2; huAng-2
T1 sequence (looked up): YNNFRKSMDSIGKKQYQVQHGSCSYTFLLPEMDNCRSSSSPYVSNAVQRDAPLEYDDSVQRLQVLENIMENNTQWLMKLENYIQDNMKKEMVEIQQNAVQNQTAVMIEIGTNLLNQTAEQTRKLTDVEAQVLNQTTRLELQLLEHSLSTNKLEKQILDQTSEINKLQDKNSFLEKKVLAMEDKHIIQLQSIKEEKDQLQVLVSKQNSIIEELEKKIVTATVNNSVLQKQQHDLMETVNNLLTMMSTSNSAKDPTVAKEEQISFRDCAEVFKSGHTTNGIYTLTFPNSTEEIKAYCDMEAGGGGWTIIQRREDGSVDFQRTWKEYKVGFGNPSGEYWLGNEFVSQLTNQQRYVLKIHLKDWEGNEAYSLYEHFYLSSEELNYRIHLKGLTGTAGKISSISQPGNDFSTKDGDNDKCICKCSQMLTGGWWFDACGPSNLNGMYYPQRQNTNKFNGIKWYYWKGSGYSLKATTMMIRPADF

[2] = target: T2, murine Ang-1 (murine, UniProt O08538 20-498, limits assumed); assay: neutralization ELISA vs Tie-2-Fc
T2 construct: also called mAng-1
T2 sequence (looked up): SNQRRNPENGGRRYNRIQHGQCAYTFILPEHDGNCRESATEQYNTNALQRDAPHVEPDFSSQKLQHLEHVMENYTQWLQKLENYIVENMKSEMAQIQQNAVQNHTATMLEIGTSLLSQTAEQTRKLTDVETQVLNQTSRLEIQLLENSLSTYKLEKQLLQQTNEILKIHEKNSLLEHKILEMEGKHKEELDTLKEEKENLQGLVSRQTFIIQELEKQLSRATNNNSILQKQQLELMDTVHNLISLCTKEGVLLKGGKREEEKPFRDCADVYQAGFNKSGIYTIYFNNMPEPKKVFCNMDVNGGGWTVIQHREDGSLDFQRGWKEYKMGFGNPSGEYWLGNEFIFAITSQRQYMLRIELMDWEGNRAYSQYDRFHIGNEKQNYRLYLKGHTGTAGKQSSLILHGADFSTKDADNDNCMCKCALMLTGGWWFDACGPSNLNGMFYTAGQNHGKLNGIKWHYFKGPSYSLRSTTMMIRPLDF
Protocol: (§1) Plates were incubated at room temperature for about 1 hour, after which they were washed five times with PBS containing about 0.1 percent Tween-20. […] Absorbance was then read in a spectrophotomer at 370 nm.

[3] = target: T3, rat Ang-2 (rat, UniProt O35462 19-496, limits assumed); assay: neutralization ELISA vs Tie-2-Fc
T3 construct: also called rAng-2
T3 sequence (looked up): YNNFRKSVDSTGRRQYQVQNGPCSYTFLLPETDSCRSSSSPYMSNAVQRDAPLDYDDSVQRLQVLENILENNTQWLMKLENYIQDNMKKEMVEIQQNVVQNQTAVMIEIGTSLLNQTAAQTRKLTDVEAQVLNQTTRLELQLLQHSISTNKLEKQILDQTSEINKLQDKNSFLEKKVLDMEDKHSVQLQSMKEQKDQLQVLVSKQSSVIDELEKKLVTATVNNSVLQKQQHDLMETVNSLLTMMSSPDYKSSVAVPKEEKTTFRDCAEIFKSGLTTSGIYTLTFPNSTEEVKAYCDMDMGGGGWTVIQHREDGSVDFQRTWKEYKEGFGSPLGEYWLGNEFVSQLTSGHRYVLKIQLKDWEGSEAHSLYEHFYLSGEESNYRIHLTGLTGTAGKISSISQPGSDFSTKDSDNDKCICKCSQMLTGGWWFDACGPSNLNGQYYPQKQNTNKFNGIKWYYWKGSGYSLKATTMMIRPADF
Protocol: as §1

Kd [1]: ~0.002 nM
IC50 [2]: 3.2 nM
IC50 [3]: 0.024 nM
B1: 2xCon4 (C) 1K (Fc fusion)
chain: [human IgG1 Fc not written out]GGGGGAQQEECEWDPWTCEHMGSGSATGGSGSTASSGSGSATHQEECEWDPWTCEHMLE
notes: also called Pb5714
